Assay results published in PubChem BioAssay AID493208 (National Center for Advancing Translational Sciences (NCATS), 2011).
In all, about 44,000 compounds went through this assay and about 340 (0.77%) were called active. Inconclusive results (about 5%) are left out. The call rests on the fitted dose curve; in most records, active means well fitted inhibition curve with a large enough effect; inconclusive means small, poorly fitted or top-dose-only effect; inactive means flat fitted curve, though single readings scatter. This is one part of the list.

Experiment: Acumen qHTS Assay for Inhibitors of the mTORC1 Signaling Pathway in MEF (Tsc2-/-, p53-/-) Cells: Sytravon; further: nearly all actives have a fitted effect of over 50% in size;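 on activity change, negative = inhibition: plate controls were DMSO for no effect and rapamycin for full effect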
Details: phospho-rpS6 immunofluorescence/PI, 24 h; series mostly up to 38.3 µM; activity change, negative = inhibition: at the top concentration
How it was run: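 Readout is phospho-S6 Alexa 488 signal normalized to PI per well, reported as % active cells with thresholds set from rapamycin (7.5 nM) and DMSO controls. Cells: Tsc2-/-, p53-/- MEFs, 24 hrs compound at 37 C; PI cell number serves as viability.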
Potency means the concentration at half of the fitted maximal effect.

Activity change, negative = inhibition, inactive:
CCOC(=O)c1c(C)[nH]c(C)c1S(=O)(=O)N(C)CC(=O)Nc1ccc(CC)cc1 7.94%
COc1ccc(/C=C\c2onc(C)c2S(=O)(=O)N2CCC(C(=O)Nc3cccc(OC)c3)CC2)cc1 3.07%
O=C(NCc1ccccc1)c1cc2ccc3cccnc3c2[nH]1 -13.5%
CCc1ccc(-n2c(=O)c3c4c(sc3n(CC(=O)c3ccc(Br)cc3)c2=O)CCC4)cc1 -19.5%
Cc1cccc(C)c1NC(=O)Cn1nnc(C(=O)NCc2ccc(F)cc2)c1N 7.32%
Cc1ccccc1CCNC(=O)C1CCN(S(=O)(=O)c2ccc3c(ccn3C)c2)CC1 -4.83%
O=C(NCC1(c2ccccc2)CCCC1)C(=O)Nc1cccc(Br)c1 -7.93%
Cn1c(=O)c2c(nc(Oc3ccccc3Cl)n2Cc2ccc(C#N)cc2)n(C)c1=O -2.96%
COc1cc(Nc2ncc3c(n2)CCN(Cc2cccc(C)c2)C3)cc(OC)c1 11.4%
CCc1nn(C(C)C(=O)N2CCN(c3ccccc3)CC2)c(=O)c2cc3occc3n12 (stereo not drawn) 0.376%
Cc1oc2c(C)c3oc(=O)c(CC(=O)N4CCCCC4)c(C)c3cc2c1C 3.18%
CCCN(CCC)C(=O)C(Cc1ccccc1)NS(=O)(=O)c1ccc2c(c1)c(=O)n(C)c(=O)n2C (stereo not drawn) -0.0506%
CCCSc1ncc(Cl)c(C(=O)Nc2nc3ccc(C)cc3s2)n1 -15.5%
CSc1ccc(CCNC(=O)c2ccc3c(Cl)c4c(nc3c2)CCCC4)cc1 4.02%
Cc1cc(C)c2c(CC(=O)Nc3ccccc3C(F)(F)F)coc2c1 -6.81%
Cc1nn2c(=O)cc(COC(=O)c3cccs3)nc2s1 4.84%
COc1ccc(S(=O)(=O)c2c(O)c3ccc(C(=O)Nc4ccccc4)cc3[nH]c2=O)cc1 1.06%
CCc1nn(CC(=O)Nc2cccc(C(C)=O)c2)c(=O)c2cc3sccc3n12 -3.86%
Cc1cccc(NC(=O)C2CCN(c3nnc(C)c4c(C)n(-c5ccccc5)nc34)CC2)c1C -3.19%
O=C(NCc1ccccc1)C(=O)NCC(c1ccco1)S(=O)(=O)c1cccs1 (stereo not drawn) 0.634%
Cc1ccc(Cl)cc1NC(=O)C1CCCN(c2cnccn2)C1 (stereo not drawn) 4.21%
CN(C)c1ccc(C(CNS(=O)(=O)c2ccc(Cl)cc2)N2CCOCC2)cc1 (stereo not drawn) -3.43%
CN(c1ccccc1C(=O)O)S(=O)(=O)c1ccc2[nH]c(=O)oc2c1 -5.12%
CCOC(=O)c1ccccc1NC(=O)Cn1c(=O)n(Cc2nc(C)no2)c(=O)c2ccccc21 -9.79%
O=C(CCn1c(=O)c2ccccc2n(Cc2cccc(Cl)c2)c1=O)NCCc1ccccc1 -3.15%
CCN(CCCNC(=O)CSc1cc(=O)n(CC)c2ccccc12)c1ccccc1 -8.88%
CCc1ccc(NC(=O)Nc2cn(C)c(=O)c3ccccc23)cc1 -22.5%
O=C(NC1CCCC1)c1ccc2c(=O)n(Cc3ccccc3)c(SCc3ccc([N+](=O)[O-])cc3)nc2c1 1.09%
CCc1ccc(CNC(=O)Cn2ccc3cc(S(=O)(=O)N4CCCCCC4)ccc32)cc1 0%
COc1cccc(CNC(=O)CN2C(=O)CCc3cc(S(=O)(=O)N4CCOCC4)ccc32)c1 7.06%
CCc1ccc(-n2nc(CO)c(C(=O)NC(C)c3ccc(Cl)cc3)n2)cc1 (stereo not drawn) -0.525%
COc1ccc(OC)c2sc(N(Cc3cccnc3)C(C)=O)nc12 1.3%
Cc1ccc(Sc2ccc(N3CCCC(C(=O)Nc4ccc(Br)cc4)C3)nn2)cc1 (stereo not drawn) -0.323%
Cc1nc2ccn(Cc3cccnc3)c(=O)c2cc1C(=O)N1CCN(c2ccccc2F)CC1 1.37%
Cc1c(C)n(Cc2ccccc2)c2ccc(C(=O)N3CCN(c4ccccc4F)CC3)cc12 5.5%
O=C(NCCc1ccc(Cl)cc1)c1cc(-c2ccccc2)n[nH]1 -5.42%
CCOc1ccc(-c2nnc(SCC(=O)NC3CCCCC3)nc2-c2ccc(OCC)cc2)cc1 2.42%
COc1ccc2c(c1)Cc1sc(NC(=O)c3ccccc3C)nc1-2 -2.7%
Cc1ccc(C)c(N2CCN(c3nc4ccccc4c(=O)n3-c3ccc(Cl)cc3)CC2)c1 -0.256%
COc1cccc(CNC(=O)c2ccc(-c3nc(CS(=O)c4ccccc4)c(C)o3)cc2)c1 (stereo not drawn) 1.34%
COc1ccc(NC(=O)Cn2cnc3ccc(S(=O)(=O)N4CCC(C)CC4)cc3c2=O)c(OC)c1 -2.36%
COc1ccc(C2=C(C)C(N3CCC(C(=O)NCc4ccc(C)o4)CC3)=NS2(=O)=O)cc1 0%
CCN(CC)c1ccc(NC(=O)Cn2ncc3c(C)n(Cc4ccccc4F)c(C)c3c2=O)c(C)c1 1.35%
COc1ccc(/C=C/C(=O)Nc2ccc(C)cc2)cc1 -1.42%
Cc1ccc(NC(=O)Cc2ccc(NC(=O)N3CCCCc4ccccc43)cc2)cc1Cl 0.557%
COc1cccc(-c2nc(S(=O)(=O)c3ccc(C)cc3)c(N3CCCCCC3)o2)c1 -11.1%
CCOC(=O)c1ccc(N2C(=O)c3n[nH]c(-c4ccco4)c3C2c2ccc(OC)cc2OC)cc1 (stereo not drawn) -7.65%

Potency, active:
CCS(=O)(=O)c1ncc(Cl)c(C(=O)NCc2ccc(OC)cc2)n1 3.69 µM
